# In PubChem BioAssay (Tox21):
# “And” between values parts separate entries of the source, which are not always exact repeats. Identical values can stand only once. Inconclusive means that the source gave no clear call. Such entries were picked first, then a sample of the others. Where the call is inconclusive, the potency comes from a doubtful curve fit. Some compounds were tested as several samples or in several runs, with calls that do not always agree. The source made the active and inactive calls. Unless noted, calls follow the shape of the full dose curve.
# Assay: qHTS assay to identify small molecule agonists of H2AX (AID 1224845; active = well fitted activation curve with a large enough effect in the signal ratio in the repeat runs, not every such curve was filed as active; inconclusive = weak or mixed curves; the % refers to the signal ratio)
# Settings: CHO-K1 phospho-H2AX Ser139 HTRF, 3 h; activation (H2AX phosphorylation): at 154 µM (top of the series) unless noted
# Procedure, shortened: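 Wild-type CHO-K1 cells plated overnight, then exposed 3 hr at 37C to compounds at 15 concentrations (0.76% DMSO). Lysed, then HTRF anti-pH2AX(S139)-cryptate/anti-H2AX-d2 detection after 24 hr at room temperature; emissions 665 and 620 nm.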
# % is scaled to controls: 0 for no effect and ±100 for the full control effect; potency is read from the fitted curve at half-maximal effect; tags tell the direction and shape of the fitted curve or compound fluorescence and quenching.
SMILES,activation (H2AX phosphorylation),Potency
C=C(C)C(=O)OCCCCOC(=O)C(=C)C,inactive: 1.46%,–
O=[N+]([O-])c1ccc2ccc3cccc4ccc1c2c34,–,"inconclusive: 63.5 µM [activator, partial curve]"
CC1OC(C)OC(C)O1 (stereo not given),–,inactive
C=CC(=O)OCCCCO,–,"inconclusive: 113 µM [activator, single point]"
CCOP(=S)(OCC)Oc1ccc(Cl)cc1Cl,inconclusive: 6.49%,–
CCC(C(N)=O)N1CCCC1=O (stereo not given),–,"inconclusive: 55.2 µM [rising, partial curve, poor fit]"
CC(=O)[O-].CC(=O)[O-].[Co+2],inactive: -0.318%,–
O=C(CBr)OCc1ccccc1,–,inconclusive: 101 µM [activator]
Clc1ccc(C2(Cn3cncn3)OCCO2)c(Cl)c1,inactive: -3.49%,–
C[N+](C)(C)CC(=O)O,–,inactive
Nc1cc(Cl)ccc1Cl,inactive: 0.666%,–
C#C[C@]1(O)CC[C@H]2[C@@H]3CCC4=CC(=O)CC[C@]4(C)[C@H]3CC[C@@]21C,–,"inactive and inconclusive: 6.95 µM [activator, partial curve]"
C1CCC2CCCCC2C1 (stereo not given),–,"inconclusive: 131 µM [rising, single point]"
Cn1sc(Cl)cc1=O,–,inconclusive: 127 µM [activator]
Clc1cc(C(Cl)(Cl)Cl)cnc1Cl,–,active: 89.8 µM
CC(=O)[O-].CC(=O)[O-].O.O.[Cd+2],–,active: 62.7 µM
CCOC(=O)c1ccccc1N,–,inactive

# Assay: qHTS assay to identify small molecule agonists of the hypoxia (HIF-1) signaling pathway (AID 1224846; active = well fitted activation curve with a large enough effect in the signal ratio in the repeat runs, not every such curve was filed as active; inconclusive = weak or mixed curves; the % refers to the signal ratio)
# Settings: HRE-bla ME-180 cells, beta-lactamase ratio, 17 h; activation: at 76.8 µM (top of the series) unless noted
# Procedure, shortened: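 Compounds from the Tox21 10K library, dissolved in DMSO, are tested for induction of a hypoxia response element–controlled beta-lactamase reporter in ME-180 cells. Exposure lasts 17 hrs at 37C after a 5 hr settling period, followed by CCF4-AM FRET substrate.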
SMILES,Potency,activation
OCCCCO,inactive,–
O=[N+]([O-])c1ccc2ccc3cccc4ccc1c2c34,"inconclusive: 24.5 µM [rising, full curve]",–
COc1cc(CCN)cc(OC)c1OC,–,inactive: -0.248%
CC1OC(C)OC(C)O1 (stereo not given),inactive,–
CCN(CCO)CCO,–,inactive: -0.675%
C=CC(=O)OCCCCO,inconclusive: 61.7 µM [single point],–
CCC(=O)OC1(c2ccccc2)CCN(C)CC1,"inconclusive: 10.3 µM [falling, partial curve, poor fit]",–
COC(C)(C)C,–,inactive: -1.04%
CCCC[N+]1(C)CCCCC1,inactive,–
CCCCNP(N)(N)=S,–,inactive: -2.26%
COC(=O)C(Cl)C(=O)OC,–,inactive: -1.04% [at 35.5 µM]
O=[Se]=O,–,inactive: -0.0662% [at 35.5 µM]
O=P(O)(O)CCCl,"inconclusive: 0.194 µM [falling, single point]",–
CCOC(=O)Cc1ccccc1,"inconclusive: 0.195 µM [falling, single point]",–
CC(=O)[O-].CC(=O)[O-].[Co+2],active: 21.9 µM,–
CCC1(CCC(C)C)C(=O)NC(=O)NC1=O,–,inactive: 0.112%
O=C(NC(=O)c1c(F)cccc1F)Nc1cc(Cl)c(OC(F)(F)C(F)C(F)(F)F)cc1Cl (stereo not given),"inconclusive: 21.9 µM [falling, partial curve, poor fit]",–
CC(C)(C)c1cc([N+](=O)[O-])cc([N+](=O)[O-])c1O,–,inactive: -0.21%
Nc1cc(Cl)ccc1Cl,–,inactive: -0.65%
OCC(O)CO,inactive,–
[Cl-].[Cl-].[Sn+2],–,inactive: 0.56%
CC(C)(C)C(=O)C(Oc1ccc(Cl)cc1)n1cncn1 (stereo not given),"inconclusive: 0.195 µM [falling, single point]",–
CCCCCCCCCC(=O)O[C@H]1CC[C@H]2[C@@H]3CCC4=CC(=O)CC[C@@H]4[C@H]3CC[C@]12C,inconclusive: 26.8 µM [single point],–
Cc1cc(C)cc(C)c1,inactive,–
Nc1nc(N)nc(Cl)n1,–,inactive: 0.746%
O.O.O.O.O.O.O.O=S(=O)([O-])[O-].[Co+2],inconclusive: 15.6 µM [full curve],–
COc1cc(CC(C)N)cc(OC)c1OC (stereo not given),–,inactive: 0.302%

# Assay: qHTS assay to identify small molecule agonists of H2AX - cell viability counter screen (AID 1224847); also: nearly all actives have a fitted effect of over 30% in size; as to activity change, negative = cytotoxicity: top concentration of the series differs between compounds
# Settings: CHO-K1 viability, CellTiter-Glo luminescence, 3 h; series mostly up to 154 µM; activity change, negative = cytotoxicity: at the top concentration
# Procedure, shortened: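 Cells plated first: CHO-K1, 1000 per well in 10% FBS medium, incubated overnight at 37C. Then 15-point compound titration added (final DMSO 0.76%) for 3 hr. Finally CellTiter-Glo added and luminescence read.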
SMILES,Potency,"activity change, negative = cytotoxicity"
CC1OC(C)OC(C)O1 (stereo not given),"inconclusive: 2.01 µM [cytotoxic, single point]",–
CCOP(=S)(OCC)Oc1ccc(Cl)cc1Cl,inconclusive: 127 µM [cytotoxic],–
CCC(C(N)=O)N1CCCC1=O (stereo not given),–,inactive: -0.91% [at 70.9 µM]
Cn1sc(Cl)cc1=O,–,inactive: -0.445%
Clc1cc(C(Cl)(Cl)Cl)cnc1Cl,–,inactive: 1.35%
CC(=O)[O-].CC(=O)[O-].O.O.[Cd+2],"inconclusive: 17.7 µM [cytotoxic, full curve]",–
